Test results published in publication PMC5505701, “Somatostatin binds to the human amyloid β peptide and favors the formation of distinct oligomers” (eLife, 2017).

What follows are substances tested on oligomeric Aβ1-42 (biotin-oAβ1-42 bait). Details: Experiment I, biotin-oAbeta 1-42 (TMT 126) versus biotin (TMT 131), replicate channel 126.

| Substance | 126/131 |
| --- | --- |
| 14-3-3 protein epsilon: human brain protein | 1.520 |

Same assay, conditions: Experiment I, biotin-oAbeta 1-42 (TMT 128) versus biotin (TMT 131), replicate channel 128

| Substance | 128/131 |
| --- | --- |
| 14-3-3 protein epsilon: human brain protein | 1.029 |

Same assay, conditions: Experiment I, biotin-oAbeta 1-42 (TMT 130) versus biotin (TMT 131), replicate channel 130

| Substance | 130/131 |
| --- | --- |
| 14-3-3 protein epsilon: human brain protein | 1.646 |

Same assay, conditions: enrichment relative to biotin-only saturated negative control matrix; human frontal lobe digitonin extract; TMT, three biological replicates; pH 8.0, 4°C overnight

| Substance | Experiment I B-oAβ1-42/B Ratio |
| --- | --- |
| Transforming protein RhoA: human brain protein | 7.48 |
| DnaJ homolog subfamily A member 2: human brain protein | 5.28 |
| 2,4-dienoyl-CoA reductase, mitochondrial: human brain protein | 7.74 |
| Tubulin beta-3 chain: human brain protein | 5.39 |
| Interleukin enhancer-binding factor 2: human brain protein | 4.98 |
| Cofilin-1: human brain protein | 4.67 |
| Ras-related protein Rab-1A: human brain protein | 10.52 |
| Dihydropyrimidinase-related protein 1: human brain protein | 5.21 |
| Dihydropyrimidinase-related protein 3: human brain protein | 5.13 |
| Isocitrate dehydrogenase [NADP] cytoplasmic: human brain protein | 8.20 |
| Pyruvate kinase isozymes M1/M2: human brain protein | 7.04 |
| Carbohydrate kinase domain-containing protein: human brain protein | 6.95 |
| ATP synthase subunit beta, mitochondrial: human brain protein | 8.59 |
| Cathepsin D: human brain protein | 5.52 |
| Ubiquitin carboxyl-terminal hydrolase L1: human brain protein | 7.49 |

Same assay, conditions: experiment not given

| Substance | oAβ1-42 binding observed (in words) |
| --- | --- |
| clusterin: human brain protein, known Aβ interactor | oAβ1-42 binders observed in this work |
